In PubChem BioAssay AID686971 (National Center for Advancing Translational Sciences (NCATS), 2013):
The whole screen tested about 360,000 compounds, of which about 7,500 (2.1%) were called active. The shares of active, inactive and inconclusive entries below differ from those in the screen. Calls follow the shape of the dose curve; as a rule, active = well fitted cell-killing curve with a large enough effect; inconclusive = small, poorly fitted or top-dose-only effect, or effect the other way, or another doubt; inactive = no such curve, though single readings can be large or run the other way. No potency is given beside an inconclusive call; the fits are too rough.

Test: qHTS for induction of synthetic lethality in tumor cells producing 2HG: qHTS for the HT-1080-IDH1KD cell line;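 as to activity, negative = toxicity: 0% = DMSO wells and -100% = cell-free medium wells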
Details: HT-1080 IDH1 knockdown viability, ATP luminescence, 48 h; activity, negative = toxicity: at 46.1 µM (top of the series) unless noted
Outline: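 In this qHTS, HT-1080 cells depleted of IDH1 are exposed for 48 h at 37 °C to compound titrations. Toxicity is scored from CellTiter-Glo luminescence, with DMSO as full viability and medium alone as none.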
Potency is read from the fitted curve at half-maximal effect; tags tell the direction and shape of the fitted curve.

Compound | Potency | activity, negative = toxicity
NS(=O)(=O)c1ccc(NC(=O)/C=C/c2ccc3c(c2)OCO3)cc1 | active: 0.731 µM | 
CC1CN(S(=O)(=O)c2cccc(C(=O)OC(C)C(=O)NC3CCCCC3C)c2)CC(C)O1 (stereo not drawn) |  | inactive: -0.868%
COc1cc(SC)ccc1C(=O)Nc1cccc(C)n1 |  | inactive: -7.41%
CN(C)c1ccc(/C=N/NC(=O)c2ccc3c(c2)OCO3)cc1 |  | inactive: -2.78%
COc1ccc(OC)c(NC(=O)c2ccccc2N(Cc2ccccc2)S(C)(=O)=O)c1 |  | inactive: 0.334%
Cc1cccc(C)c1OCc1cc(C(=O)NCC2CCCCC2)no1 |  | inactive: 12.5%
O=C1CC(c2ccc(O)cc2)Oc2ccccc21 (stereo not drawn) |  | inactive: 6.52%
CCCN(Cc1cc2cc(C)ccc2[nH]c1=O)C(=O)c1ccccn1 | inconclusive [rising, single point] | 
CCOc1ccc(C(=O)Nc2ccc(NC(=O)c3ccco3)c(Cl)c2)cc1Br | inconclusive [cytotoxic, single point] | 
Cc1ccc(NC(=S)NCc2ccccc2)c(C)c1 |  | inactive: 9.99%
CCOc1ccccc1C(=O)NC1CCN(Cc2nnnn2C2CCCC2)CC1 |  | inactive: -1.03%
C/C(=N\NC(=O)c1nn(C)c(C)c1Br)c1cccc(NC(=O)c2ccc(F)cc2)c1 |  | inactive: 8.63%
O=C(Nc1ccc2c(c1)[nH]c(=O)c1ccccc12)C(F)(F)F |  | inactive: -7.3%
O=C1CSC(c2cccnc2)N1c1cccc(Cl)c1 (stereo not drawn) |  | inactive: 0.411%
CCOC(=O)C1CCCN(c2cc(C)nc3cc(-c4ccc(F)cc4)nn23)C1 (stereo not drawn) | inconclusive [cytotoxic, single point] | 
COc1ccc2c(CC(=O)OCC(=O)Nc3cccc(C)c3)coc2c1 |  | inactive: 6.3%
CCOC(=O)Nc1ccc2c(c1)Nc1ccccc1S2 | inconclusive [cytotoxic, single point] | 
CC1(C)CC(=O)C(C(C2=C(O)CC(C)(C)CC2=O)c2ccc(Br)s2)C(=O)C1 (stereo not drawn) | inconclusive [cytotoxic, partial curve] | 
FC(F)(F)c1cccc(NC(=S)N2CCN(c3cccc(C(F)(F)F)c3)CC2)c1 | inconclusive [cytotoxic, single point] | 
COc1ccc(C2C(C#N)=C(N)N(c3ccccc3)C3=C2C(=O)CCC3)cc1Cn1cc([N+](=O)[O-])cn1 (stereo not drawn) | inconclusive [cytotoxic, partial curve] | 
COc1ccc(S(=O)(=O)N2CCCCC2)cc1NC(=O)c1ccc(OC)c(OC)c1 |  | inactive: -0.486%
CC1(C)OC(=O)C2=C(C[C@@H](CCc3ccccc3)O[C@@H]2c2ccc(Cl)cc2)O1 | inconclusive [cytotoxic, single point] | 
COc1ccc(NC(=O)c2cc(-c3ccc(C)o3)nc3ccccc23)cc1OC | inconclusive [cytotoxic, single point] | 
Cc1ccc(-n2c(SCC(=O)Nc3ccc4c(c3)OCO4)nnc2-c2ccccn2)cc1 | inconclusive [cytotoxic, single point] | 
S=C(NNc1ccnc2cc(Cl)ccc12)Nc1ccccc1Cl | inconclusive [cytotoxic, single point] | 

Compound | Potency | activity, negative = toxicity
O=C(NCc1cccs1)c1cc(-c2ccccc2)nc2ccccc12 |  | inactive: -0.628%
O=C1NC(c2cccc3ccccc23)Nc2ccc(Cl)cc21 (stereo not drawn) | active: 0.517 µM | 
CC1(C(=O)NCCc2ccccc2)Cc2c(-c3cccc(C(N)=O)c3)ccnc2O1 (stereo not drawn) | inconclusive [cytotoxic, single point] | 
CCC1CCCCN1CCCNC(=O)c1ccc2c(c1)N(Cc1ccc(F)cc1)C(=O)c1ccccc1S2=O (stereo not drawn) | active: 23.1 µM | 
O=C(Nc1cccs1)Nc1ccc(Br)cc1F | inconclusive [cytotoxic, single point] | 
Cc1ccc(C(c2nnnn2Cc2cccs2)N2CCN(Cc3ccc4c(c3)OCO4)CC2)cc1 (stereo not drawn) | inconclusive [cytotoxic, single point] | 
CC(=O)Nc1cccc(-c2ccnc3c2CC(C(=O)Nc2ccc(Cl)cc2)O3)c1 (stereo not drawn) | active: 20.6 µM | 
Cc1cc(C)c([N+](=O)[O-])cc1-c1ccc(/C=N/NC(=O)c2nonc2N)o1 | inconclusive [cytotoxic, single point] | 
Cc1ccc(-c2cc(C(=O)N/N=C/C(Br)=C/c3ccccc3)n[nH]2)o1 | active: 20.6 µM | 
CCC(Sc1nc2ccccc2o1)C(=O)O (stereo not drawn) | inconclusive [rising, partial curve, poor fit] | 
COc1ccccc1N(C)S(=O)(=O)c1ccc(C(=O)OCC(N)=O)cc1 | inconclusive [rising, single point] | 
COc1ccc(COC(=O)c2sc3nc4n(c(=O)c3c2C)CCC4)cc1 |  | inconclusive: 31.5%
O=C(N/N=C/c1cc(Br)cs1)c1ccc2c(c1)OCCO2 | active: 11.6 µM | 
Cc1nc(-c2ccccc2)sc1C(=O)NN | inconclusive [cytotoxic, single point] | 
Cc1ccc(C(=O)NCCCn2ccnc2)cc1[N+](=O)[O-] |  | inconclusive: -5.75% [cytotoxic]
CCc1nc2ccccc2c(C(=O)OCC(=O)Nc2cccc(S(=O)(=O)NC3=NCCCCC3)c2)c1C | inconclusive [cytotoxic, partial curve] | 
Cc1n[nH]c(=S)n1/N=C/c1c(O)ccc2ccccc12 | inconclusive [cytotoxic, single point] | 
Cc1cc(C(=O)Nc2ccc(F)cc2C)n(-c2ccccc2)n1 |  | inactive: 5.62%
CCOC(=O)C1=C(C)NC(=O)NC1c1cccc(OC)c1OCc1ccccc1Cl (stereo not drawn) | inconclusive [cytotoxic, partial curve] | 
COc1ccc(-c2csc(N(C)C(=O)c3ccco3)n2)cc1 |  | inactive: -1.03%
CCCCCCN1C[C@H](n2cc(-c3ccc(F)cc3)nn2)[C@@H](O)C[C@@H]1c1ccc(Cl)cc1 | inconclusive [cytotoxic, single point] | 
CN(C)CCNC(=O)c1cccc2[nH]c(-c3ccncc3)nc12 | inconclusive [cytotoxic, single point] | 
COC(=O)c1cc(Sc2cccc(Cl)c2Cl)ccn1 | inconclusive [cytotoxic, full curve, poor fit] | 
CCOc1ccccc1CNC(=O)c1nn(CC)cc1[N+](=O)[O-] |  | inactive: 1.37%
COc1ccc(C(=O)Nc2ccc(NC(=O)c3cc(OC)c(OC)c(OC)c3)cn2)cc1 | inconclusive [cytotoxic, single point] | 

Compound | Potency | activity, negative = toxicity
COc1cc(SC)ccc1C(=O)NCCc1c[nH]c2ccccc12 | inconclusive [cytotoxic, partial curve] | 
Cc1ccc(S(=O)(=O)N(Cc2cc3cc4c(cc3[nH]c2=O)OCCO4)CC2CCCO2)cc1 (stereo not drawn) |  | inactive: 9.34%
Cc1ccc(OCCCNCCO)c(Br)c1 | active: 20.6 µM | 
COc1ccc(S(=O)(=O)Nc2ccc(NC(C)=O)cc2)cc1Br |  | inactive: -0.727%
Cc1cccc(C)c1-n1nnnc1C1(C)CCC(=O)N1CCOc1ccccc1 (stereo not drawn) |  | inactive: 3.21%
CN(C)CCN(C(=O)c1cccs1)c1nc2cc3c(cc2s1)OCCO3 |  | inactive: -0.103%
CCC[n+]1c2ccccc2cc2ccccc21 | inconclusive [cytotoxic, single point] | 
CCc1ccc(S(=O)(=O)Nc2cc(SCC(=O)O)c(O)c3ccccc23)cc1 | inconclusive [cytotoxic, single point] | 
CCN(C(=O)COC(=O)c1c2c(nc3ccccc13)/C(=C/c1ccccc1)CC(C)C2)C1CCS(=O)(=O)C1 (stereo not drawn) | inconclusive [cytotoxic, single point] | 
COc1ccc(Cl)cc1C(=O)Nc1ccc(NC(=O)C(C)C)cc1 | inconclusive [cytotoxic, single point] | 
COc1cc(CNCCN(C)C)ccc1OCc1c(F)cccc1Cl | inconclusive [cytotoxic, single point] | 
Cn1c(N)c(C(=O)COC(=O)CSc2cccc3cccc(Cl)c23)c(=O)n(C)c1=O |  | inactive: 23.7%
O=C(NCCO)c1cccc(-c2cnc3c(Nc4cccc(OC(F)(F)C(F)F)c4)nccn23)c1 | inconclusive [cytotoxic, single point] | 
CCN(C(=O)CSc1ncccc1C(=O)OC(C)C)c1cccc(C)c1 | inconclusive [cytotoxic, single point] | 
O=C(/C=C/NNC(=O)c1cccc(Br)c1)c1cccc(Br)c1 | inconclusive [cytotoxic, single point] | 
COc1ccc(/C=C/C(=O)NC(=S)NNC(=O)Cc2cccs2)cc1 | active: 16.4 µM | 
O=C(NCCCN1CCOCC1)/C(=C/c1ccc(-c2cccc([N+](=O)[O-])c2)o1)NC(=O)c1ccccc1 | inconclusive [cytotoxic, partial curve] | 
CC1(Cc2ccc(Cl)cc2)C(=O)Nc2c(Cl)ccc(Cl)c21 (stereo not drawn) | inconclusive [cytotoxic, single point] | 
Cc1cc(NC(=O)CCCS(=O)(=O)c2nc(-c3cccs3)cc(C(F)(F)F)n2)no1 | active: 5.8 µM | 
O=C(Nc1ccc2c(c1)OCO2)c1cc(-c2cccnc2)nc2ccccc12 |  | inactive: -8.26%
Nc1ccccc1N=Cc1ccc(-c2cccc(Cl)c2)o1 | inconclusive [cytotoxic, partial curve] | 
CC(C)(C)c1ccc(C(=O)NCCC(=O)N2CCC3(CC2)NCCc2[nH]cnc23)cc1 |  | inactive: 4.4%
O=C(C1CCC1)N1CCC(c2nc3c(nnn3Cc3c(F)cccc3Cl)c(=O)[nH]2)CC1 |  | inconclusive: -31.1% [cytotoxic]
